We go through 22 molecules from article PMC12136788.

The other results are listed elsewhere or left out.

To fix the notation:
B1: chr13:27440139:27440263:-|CDS|ENSG00000122033|unk|total|mutant (ssRNA)
RNA: GGGAGUUCUACAGUCCGACGAUCAAUGAAGGAAAAAAGACAAAAAAGAAUAAAACAGCUUUCCGUAACGUUGGAAGAAAAAUCCGUCAGCGAGUUAUUCACUUAUUUGAUGAGAAGGGCAAUGAUUUGGGAAACAUGCACCGACAACAGAGGAUUGAGCAUCA
B2: chr1:93365539:93365640:+|3pUTR|ENSG00000117505|unk|FALSE|unique (ssRNA)
RNA: GGGAGUUCUACAGUCCGACGAUCAGGAGGCAAAAUUGCACCCUGUUGAAAACCACCACCUUAGAUCAUCUAGGUUUUACUUUUAGGAUAAGACACUUGAGGGAAAGGCUGUGAAACUGAACCUCUGUUAGAAGCAACACACAGCAACAGAGGAUUGAGCAUCA
B3: chr6:350928:351029:+|3pUTR|ENSG00000112679|unk|total|mutant (ssRNA)
RNA: GGGAGUUCUACAGUCCGACGAUCCCACAGAGUUCCGGCUGGUGCUGCCAAAAAGAAAAGCAACACCGAGUUUAAGUAUCCAGCCGUGAUUUGUAAACUUGUUUUUCAUUUGAAGCUGAAUAUAUACGCCGUCAUGUUUAUGUUCAACAGAGGAUUGAGCAUCA
B4: ENSG00000136451:be:win_2151|3pUTR|ENSG00000136451|bound_else_gene|NA|bound_elsewhere_windowed (ssRNA)
RNA: GGGAGUUCUACAGUCCGACGAUCUAUGCAAAGCAUAUGAUAAUUUAUCAUUCUAACUUCAACGUAUAAUAGGGAUUGUGACCUGAUAUUUGGAGAUGUAAAUAUUGCUCAGCAUAUUAAUCCCGAUGGAAUAUAGCAUUGUAGCAACAGAGGAUUGAGCAUCA
B5: chrX:120627021:120627135:-|CDS|ENSG00000171155|unk|total|mutant (ssRNA)
RNA: GGGAGUUCUACAGUCCGACGAUCUUGAAGGGUGUGAUGCUUGGAAGCAUUUUCUGUGCUUUGAUCACUAUGCCCGGACACAUCCGGAUUGGUCAUGGAAACCGAAUGCACCACCAUGAGCAUCAUCACCUACAAGCUCCUAACCAACAGAGGAUUGAGCAUCA
B6: chr14:100884374:100884478:-|CDS|ENSG00000254656|unk|FALSE|unique (ssRNA)
RNA: GGGAGUUCUACAGUCCGACGAUCGAGGAGUCAUGCAACGGUUCACACCAGGCAAGGGGGGAUCCACUCAGUGGAGCAUCUGAUAGGAUGAAAGAAGCAUCAGUCAACCCAUCGGGAGCCCGAGAAGAACAAGAGGCUCACACUCAACAGAGGAUUGAGCAUCA
B7: chr18:9257137:9257239:+|CDS|ENSG00000101745|unk|total|mutant (ssRNA)
RNA: GGGAGUUCUACAGUCCGACGAUCUCUCCGGUCAUCUUCUGCCGAAGAUGUUAAACUAAUUAUAAGCGAGGGGAGACCUACCACCGAAGUUCGAAGAUGCCGCAUGCCUUCUGUCAUUUGUGAACAUACCAAACAAUUCCAAACCAACAGAGGAUUGAGCAUCA
B8: chr16:67175568:67175669:+|3pUTR|ENSG00000140939|msi1|FALSE|unique (ssRNA)
RNA: GGGAGUUCUACAGUCCGACGAUCUUAGAGCUCACAGCCUUGGGAAGUGAGACUAGAAGAGGGGAGCAGAAAGGGACCUUGAGUAGACAAAGGCCACACACAUCAUUGUCAUUACUGUUUUAAUUGUCUGGCUUCUCUCUGGACCAACAGAGGAUUGAGCAUCA
B9: chr2:39051162:39051270:-|CDS|ENSG00000115904|unk|FALSE|unique (ssRNA)
RNA: GGGAGUUCUACAGUCCGACGAUCAAAUAUAUUUAGUCGCAUAGUAGAUAUACAUGAACUUAGUGUAAAGUUACUGGGCCAUAUAGAAGAUACAGUAGAAAUGACAGAUGAAGGCAGUCCCCAUCCACUAGUAGGAAGCUGCUUCAACAGAGGAUUGAGCAUCA
B10: chrX:154027874:154027956:-|3pUTR|ENSG00000169057|msi1_unk|total|mutant (ssRNA)
RNA: GGGAGUUCUACAGUCCGACGAUCUGGUCCGAAGUGAGGGAGUUUGCCCCGUUCUGUUUGCCGAGUCUCACCGUUGGACUUUCCCGCAUAUAUGUGUCCAUUUCCUUAUGCUGUAAAAGCAAGUCCUGCAACCAAACUCCCAUCCAACAGAGGAUUGAGCAUCA
B11: chr2:135782819:135782876:+|CDS|ENSG00000144224|msi1_unk|total|mutant (ssRNA)
RNA: GGGAGUUCUACAGUCCGACGAUCGUGAGAAAAAGAGUGCUGGAAAAACGUGGAGACGACUUUAAAAAGGAGGGGAAAAUUUACCGAUUAAGGACUCAAGAUGAUGGUGAAGAUGAAAACAACACUUGGAAUGGAAAUUCCACUCAACAGAGGAUUGAGCAUCA
B12: chr14:22589090:22589186:-|5pUTR_CDS|ENSG00000129562|msi1_unk|FALSE|overlapping (ssRNA)
RNA: GGGAGUUCUACAGUCCGACGAUCUCCUCCAAGAGUUUGGGGCGCGGACCGGAGUACCUUGCGUGCAGUUAUGUCGGCGUCGGUAGUGUCUGUCAUUUCGCGGUUCUUAGAAGAGUACUUGAGCUCCACUCCGCAGCGUCUGAACAACAGAGGAUUGAGCAUCA
B13: chr1:153626309:153626462:-|CDS|ENSG00000189171|unk|FALSE|unique (ssRNA)
RNA: GGGAGUUCUACAGUCCGACGAUCUCCAUUGAGACCGUGGUCACCACCUUCUUCACCUUUGCAAGGCAGGAGGGCCGGAAGGAUAGCCUCAGCGUCAACGAGUUCAAAGAGCUGGUUACCCAGCAGUUGCCCCAUCUGCUCAAGCAACAGAGGAUUGAGCAUCA
B14: chr13:36848462:36848578:-|3pUTR|ENSG00000120693|unk|total|mutant (ssRNA)
RNA: GGGAGUUCUACAGUCCGACGAUCAAAUACACCGAAUGUAUACUGUUCUUAUUUUUUUUAAUCACCGUUUGUUUUGUGCUUUCCCGUUAACCUGAUGCCAGUACAGUGCAAUUGGAAAAGCAGGACUUUGGUGCCUGUGCUAUACAACAGAGGAUUGAGCAUCA
B15: chr2:181535040:181538244:-|three_prime_utr|ENSG00000188452|control|control|control (ssRNA)
RNA: GGGAGUUCUACAGUCCGACGAUCAGCAUGGAAGAAAUGAUUCCAAAGUAACAUGUAAUUGUUUCUAAAAGAAAUGUACAAACUAGAAUUUUAAUAUAAAGAAAUGUGGCCAUGCUUUAAACCUGUGGUCCCCACCCUUUUUGGCAACAGAGGAUUGAGCAUCA
B16: chr17:29166540:29166641:-|CDS|ENSG00000196535|unk|total|mutant (ssRNA)
RNA: GGGAGUUCUACAGUCCGACGAUCCUGGACUCGGGCCACCUAAGUACAGCCAGCUCCAGCGAUGACCUCAAGGGUGAGGAGGGCCGCUUCCGUGGCUCGGUGCUGCAGCGGGCAGCCAAGUUCGGCUCACUGGCCAAGCAGAACCAACAGAGGAUUGAGCAUCA
B17: chr10:22535117:22535218:-|3pUTR|ENSG00000150867|unk|FALSE|unique (ssRNA)
RNA: GGGAGUUCUACAGUCCGACGAUCAAGGUACACAUACAUUAUUUGAGUAACUGUUUCCUUGGGGGCCAAUCUGUGUAUGCUUUUAGAAGUUUACAGAAUGCUUUUAUUUUUGUCUAUAACAAACAGUCUGUCAUUUAUUUCUGUCAACAGAGGAUUGAGCAUCA
B18: chr13:110149562:110149758:-|3pUTR|ENSG00000187498|msi1|total|mutant (ssRNA)
RNA: GGGAGUUCUACAGUCCGACGAUCUAAAUAUAUAUAUAUAUCCGUAAUUUAUACCGAUGUCAGCAAUCCGGCAGAUCAAGGUUCCGUUUAACUUCCACUGUUAAAAUAAAGCUUACACCGUUUUCUUCCUUUGAAAGACUGUGCCAACAGAGGAUUGAGCAUCA
B19: ENSG00000135862:stop:overlap|stop_codon|ENSG00000135862|stop_codon|NA|stop_codon (ssRNA)
RNA: GGGAGUUCUACAGUCCGACGAUCAGGACAUCAGGAAGACCUUACCAUCUGGCUGCUUCAACACCCCGUCCAUUGAAAAGCCCUAGUGUCUUUAGGGCUGGAAGGCAGCAUCCCUCUGACAGGGGGGCAGUUGUGAGGCCACAGCAACAGAGGAUUGAGCAUCA
B20: chr8:97851660:97851768:+|3pUTR|ENSG00000104341|msi1_unk|FALSE|overlapping (ssRNA)
RNA: GGGAGUUCUACAGUCCGACGAUCAUUAACUGUAGAAUUCUUCCUGUACGAUUGGGGAUAUAAUGGGCUUCACUAACCUUCCCUAGGCAUUGAAACUUCCCCCAAAUCUGAUGGACCUAGAAGUCUGCUUUUGUACCUGCUGGGCAACAGAGGAUUGAGCAUCA
B21: chr3:196782704:196782805:+|CDS|ENSG00000180370|unk|total|mutant (ssRNA)
RNA: GGGAGUUCUACAGUCCGACGAUCAACGGAGAACUGGAAGAUAAGCCUCCAGCACCUCCUGUGCGAAUGAGCAGCACCAUCUUCCGCACUGGAGGCAAAGACCCUUUGUCAGCCAAUCACAGUUUGAAACCUUUGCCCUCUGUUCAACAGAGGAUUGAGCAUCA
B22: chr2:128193554:128193655:+|3pUTR|ENSG00000136731|msi1|FALSE|unique (ssRNA)
RNA: GGGAGUUCUACAGUCCGACGAUCCCUUGUCAAGGCUCUGCCUGAAUGAGUUUUCAUCUGAUUGUGGGGACCAAGUCCCUGAGUAGAGGGCCAAGAGCUAGGGACAGGGGGAAGAGACUGGCCCAGGUGGUAGGGAGGAAAGAACAACAGAGGAUUGAGCAUCA

For the experiment, the target named is MSI1 full-length (mouse, UniProt Q61474 1-362). The experiment is described as follows: nsRBNS (natural sequence RNA bind-n-seq); RBNS binding buffer (assumed for nsRBNS): 25 mM Tris pH 7.5, 150 mM KCl, 3 mM MgCl2, 0.01% Triton X-100, 500 ug/ml BSA, 20 U/ml SUPERase-In, 4 C; UNK is unkempt and MSI1 is Musashi-1; names of the RNAs are library labels; protein concentration not given here; high values mean tight binding.
UniProt Q61474, sequence (Q61474 whole entry): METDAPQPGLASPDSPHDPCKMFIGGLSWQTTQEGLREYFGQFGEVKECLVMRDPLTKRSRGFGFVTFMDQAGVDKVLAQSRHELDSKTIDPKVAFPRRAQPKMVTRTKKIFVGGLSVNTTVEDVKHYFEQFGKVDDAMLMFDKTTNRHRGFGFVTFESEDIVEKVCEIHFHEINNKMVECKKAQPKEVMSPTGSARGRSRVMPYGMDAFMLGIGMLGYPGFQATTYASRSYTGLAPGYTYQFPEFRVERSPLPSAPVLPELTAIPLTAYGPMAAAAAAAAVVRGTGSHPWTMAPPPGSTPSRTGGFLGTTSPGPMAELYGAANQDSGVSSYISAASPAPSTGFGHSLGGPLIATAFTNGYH
As to B1, the binding signal stood at 0.363 enrichment R.
Take B2: the binding signal came to 7.14 enrichment R.
B3 had a binding signal of 0.238 enrichment R.
For B4, the binding signal worked out at 2.06 enrichment R.
For B5, the binding signal is 0.203 enrichment R.
In turn, B6 showed a binding signal of 0.4 enrichment R.
In the case of B7 it was 0.349 enrichment R.
In turn, B8 displayed a binding signal of 0.616 enrichment R.
With B9, the binding signal amounted to 15.1 enrichment R.
Consider B10, for which the binding signal came to 0.775 enrichment R.
As to B11, the binding signal is 0.521 enrichment R.
Consider B12, for which the binding signal was 0.704 enrichment R.
B13 yielded a binding signal of 0.348 enrichment R.
As to B14, the binding signal was 1.44 enrichment R.
B15 displayed a binding signal of 4.05 enrichment R.
Under B16 stands 0.486 enrichment R.
Take B17: the binding signal amounted to 0.778 enrichment R.
In the case of B18, the binding signal came to 2.59 enrichment R.
B19 came in with a binding signal of 0.431 enrichment R.
Take B20: the binding signal was 0.651 enrichment R.
In turn, B21 gave a binding signal of 0.36 enrichment R.
B22 came in with a binding signal of 0.555 enrichment R.
